# The campaign covered roughly 310,000 compounds. About 2,200 (0.71%) showed an effect of 50% or more. The effect is printed as a negative number. This is one part of the list.
# Biological target: human ether-à-go-go-related gene (hERG) potassium channel (human, UniProt Q12809)
# Experiment: primary screen, population patch clamp on CHO cells stably expressing hERG
# Sequence of human ether-à-go-go-related gene (hERG) potassium channel (Q12809 whole entry, looked up): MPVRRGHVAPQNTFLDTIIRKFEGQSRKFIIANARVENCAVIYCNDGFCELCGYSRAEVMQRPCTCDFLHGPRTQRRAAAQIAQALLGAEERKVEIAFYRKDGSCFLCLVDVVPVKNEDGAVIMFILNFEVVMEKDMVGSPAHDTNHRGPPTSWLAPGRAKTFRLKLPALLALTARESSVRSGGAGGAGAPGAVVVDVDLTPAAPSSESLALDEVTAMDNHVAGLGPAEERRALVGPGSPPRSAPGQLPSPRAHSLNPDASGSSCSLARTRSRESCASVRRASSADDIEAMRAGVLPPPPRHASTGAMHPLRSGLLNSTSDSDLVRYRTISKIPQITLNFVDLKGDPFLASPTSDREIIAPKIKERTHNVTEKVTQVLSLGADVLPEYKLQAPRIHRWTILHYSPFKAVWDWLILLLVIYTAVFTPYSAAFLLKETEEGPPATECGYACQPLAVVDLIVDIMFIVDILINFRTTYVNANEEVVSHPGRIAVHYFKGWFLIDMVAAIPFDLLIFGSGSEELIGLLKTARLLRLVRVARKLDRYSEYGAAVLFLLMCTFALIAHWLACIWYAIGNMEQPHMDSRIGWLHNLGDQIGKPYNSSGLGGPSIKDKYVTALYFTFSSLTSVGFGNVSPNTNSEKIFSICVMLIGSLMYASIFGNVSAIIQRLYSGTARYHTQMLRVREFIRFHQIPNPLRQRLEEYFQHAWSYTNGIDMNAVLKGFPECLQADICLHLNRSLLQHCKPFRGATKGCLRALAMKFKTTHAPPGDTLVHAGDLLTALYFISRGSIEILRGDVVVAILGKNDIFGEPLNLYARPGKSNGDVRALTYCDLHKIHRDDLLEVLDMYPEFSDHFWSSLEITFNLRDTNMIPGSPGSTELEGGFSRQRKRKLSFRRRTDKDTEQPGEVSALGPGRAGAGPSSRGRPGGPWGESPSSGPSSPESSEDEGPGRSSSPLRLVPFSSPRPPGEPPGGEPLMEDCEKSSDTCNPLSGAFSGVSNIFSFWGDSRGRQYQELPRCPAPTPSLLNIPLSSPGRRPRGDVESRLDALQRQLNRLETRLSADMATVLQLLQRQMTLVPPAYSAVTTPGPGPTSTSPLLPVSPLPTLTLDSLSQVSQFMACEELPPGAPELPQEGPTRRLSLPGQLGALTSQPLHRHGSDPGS
row,SMILES,"hERG current change (%, negative = inhibition) at 1uM"
1,CN(c1ccc(C(=O)NCc2ccncc2)cc1)S(C)(=O)=O,6.19%
2,O=C(COc1ccccc1F)NCc1ccc(-n2cccc2)cc1,5.51%
3,CCc1ccc(NS(=O)(=O)c2ccc(OC)c(C)c2)cc1,4.26%
4,Cc1ccc(NC(=S)NCc2ccccc2)c(C)c1,12.6%
5,Cc1ccc(/C=c2\sc3nc(-c4cccnc4)nn3c2=O)cc1,10.2%
6,COc1ccc(-c2c(=O)n(OCc3ccccn3)c3ccccc3[n+]2[O-])cc1OC,21.4%
7,O=C1[C@@H]2[C@H](C(=O)N1Cc1cccnc1)[C@H]1C=C[C@@H]2C1,8.29%
8,CC(Oc1ccc(Cl)cc1)C(=O)/C=C/N(C)C (stereo not shown),-8.5%
9,Cc1c(C#N)sc(C(N)=O)c1C,7.53%
10,Cc1cc(N2CCN(C)CC2)nc2ccc(NC(=S)N3CCCCCC3)cc12,-31.3%
11,O=C(NCc1nnnn1-c1ccc(F)cc1)C1CC(=O)N(c2ccc(F)cc2)C1 (stereo not shown),-6.7%
12,O=C(CCCO)N/N=C/c1ccccc1[N+](=O)[O-],22.4%
13,CCOC(=O)c1c(-c2ccccc2Cl)cn2ccccc12,3.17%
14,Cc1ccc2[nH]c(=O)c(CN(C(=O)c3cccc([N+](=O)[O-])c3)C(C)C)cc2c1,-21.5%
15,Cc1ccc(S(=O)(=O)N(CC(=O)N2CCCC2)C2CCCCC2)cc1,-16.7%
16,CN(CC(=O)Nc1ccc(N2CCOCC2)cc1)C(=O)c1cc2c(s1)CCCC2,0.499%
17,NS(=O)(=O)c1ccc(CCNC(=O)/C=C/c2ccccc2[N+](=O)[O-])cc1,14.7%
18,CCCCCn1c(=O)c(C(=O)Nc2cnccn2)c(O)c2ccccc21,12.1%
19,Cn1c(=O)c2cn(-c3ccccc3)cc2n(C)c1=O,11.1%
20,Fc1cccc2ncnc(OCc3ccccc3)c12,8.53%
21,O=C(Nc1ccc(F)cc1F)c1cc(Cl)sc1Cl,5.71%
22,CCc1ccc(C(=O)N/N=C(\C)c2cccnc2)s1,3.33%

row,SMILES,"hERG current change (%, negative = inhibition) at 1uM"
1,CC1CCCCC1NS(=O)(=O)CCNC(=O)c1ccc2c(c1)OCO2 (stereo not shown),12.4%
2,CC(=O)NCCOc1cccc2ccccc12,6.56%
3,Cc1cc(OCCN2CCC(Cc3ccccc3)CC2)ccc1[N+](=O)[O-].O=C(O)C(=O)O,-53.5%
4,COC(=O)c1cccc(NS(=O)(=O)c2ccc(OC)c(C(=O)N3CCOCC3)c2)c1C,16.5%
5,CC(=O)c1cccc(NC(=O)Cc2ccc3c(c2)CCCC3)c1,9.77%
6,CC(OC(=O)Cn1cnc2ccccc2c1=O)C(=O)NCc1ccccc1 (stereo not shown),15.9%
7,C#CCOCCOCCOCCNc1nc(N2CCOCC2)nc(N2CCN(C(=O)[C@H](C)n3cc(CCC[NH+]=C(N)N)nn3)CC2)n1.[Cl-],8%
8,O=C(CNS(=O)(=O)c1ccc(F)c(Cl)c1)N1CCCCCC1,4.84%
9,COc1cc(NC(=O)c2sc3ncn(CC(=O)N4CCCCC4)c(=O)c3c2C)cc(OC)c1OC,-5.49%
10,COc1cc2c(=O)n(CCCC(=O)NCC3CCCO3)c(=O)n(CC(=O)c3ccc(F)cc3)c2cc1OC (stereo not shown),6.14%
11,COc1ccc(CN(C(=O)c2snc(C(N)=O)c2N)C(C(=O)NC2CCCC2)c2ccc(OC)cc2)cc1 (stereo not shown),-4.91%
12,CCC(=O)N1CCC(c2ccc(OC)cc2)=N1,11.6%
13,COc1ccc(CCNc2c(C=O)c(=O)[nH]c3ccccc23)cc1OC,10.1%
14,O=C(Nc1ccc2oc(=O)ccc2c1)c1cc([N+](=O)[O-])ccc1N1CCOCC1,-7.94%
15,CC(C)CCn1cnc2c1c(=O)n(CC(=O)NC(N)=O)c(=O)n2Cc1ccccc1,12.8%
16,CC(C)=CC(=O)Nc1ccc(OCc2ccccc2)cc1,13.3%
17,CCCN1CCc2c(sc(NC(=O)C3CCN(S(=O)(=O)c4cccs4)CC3)c2C(N)=O)C1.Cl,-2.09%
18,COc1ccc(CN2C(=O)NC(=O)/C(=C\c3cc(OC)c(OC)c(OC)c3)C2=O)cc1,15.9%
19,C/C=C/c1ccc(OCC(=O)OCc2csc(Nc3ccc(C)cc3)n2)c(OC)c1,7.08%
20,Cc1cc(C(=O)Nc2ccc3c(c2)OCO3)no1,9.98%
21,COc1ccc(CN(C)S(=O)(=O)c2nnc(NC(=O)c3cccc(OC)c3)s2)cc1,20.1%

# Source: PMC4336329 (PLoS ONE, 2015)
